From PubChem BioAssay (Tox21)
“And” between values parts separate entries of the source, which are not always exact repeats. Identical values can stand only once. The inconclusive results got no clear call from the source; some entries with a clear call stand among them for comparison. Potencies beside an inconclusive call are fits to weak or partial responses and may not hold up. The source made the active and inactive calls. Unless noted, calls come from the whole dose curve; as a rule, active = well fitted curve in the direction sought with a large enough effect in the repeat runs; inconclusive = weak or mixed curves; inactive = no such curve, though single readings can be large; an effect the other way counts as inactive or inconclusive.

What was measured:
[1] = biological target: Progesterone receptor (Homo sapiens) (UniProt P06401); assay: qHTS assay to identify small molecule agonists of the progesterone receptor (PR) signaling pathway (AID 1346784; calls by dose curve; note: nearly all actives have a fitted effect of over 30% in size; for activation: % is set by controls: 0 for no effect and ±100 for the full control effect); conditions: PR-UAS-bla HEK293T, beta-lactamase FRET ratio, 16 h; activation: at 92.4 µM (top of the series) unless noted
Procedure, shortened: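 Agonist mode, quantitative HTS format in a HEK 293T line expressing a UAS-controlled beta-lactamase reporter; 16 hr compound exposure at 37C in 2% charcoal-stripped FBS, then LiveBLAzer B/G FRET fluorescence.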

[2] = biological target: Progesterone receptor (Homo sapiens) (UniProt P06401); assay: qHTS assay to identify small molecule antagonists of the progesterone receptor (PR) signaling pathway (AID 1346795; active = well fitted inhibition curve with a large enough effect in the signal ratio in the repeat runs, not every such curve was filed as active; inconclusive = weak or mixed curves; the % refers to the signal ratio); conditions: PR-UAS-bla HEK293T, beta-lactamase FRET ratio, 16 h; activity change, negative = inhibition: at 92.4 µM (top of the series) unless noted
Procedure, shortened: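 HEK293T PR-UAS-bla reporter cells in charcoal-stripped serum (2%) received compound after a 6 hr settling period, followed by R5020 agonist at 1 nM final; 16 hr incubation preceded the FRET substrate step and fluorescence measurement.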

[3] = qHTS assay to identify small molecule antagonists of the progesterone receptor (PR) signaling pathway - cell viability counter screen (AID 1346798); note: nearly all actives have a fitted effect of over 50% in size
Procedure, shortened: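 Same-well multiplex: after 16 hr at 37C with compound and R5020 stimulation, HEK293T cells carrying a UAS-bla reporter received LiveBLAzer substrate (2 hr RT), then CellTiter-Glo (30 min RT) for luminescent viability.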

[4] = qHTS assay to identify small molecule agonists of the progesterone receptor (PR) signaling pathway - cell viability counter screen (AID 1346799; calls by dose curve; note: nearly all actives have a fitted effect of over 45% in size)
Procedure, shortened: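 Counter screen for cytotoxicity: compound-treated PR-UAS-bla HEK293T cells (16 hr, 37C, 5% CO2) were assayed with CellTiter-Glo, luminescence measured after 30 min at room temperature.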

[5] = qHTS assay to identify small molecule antagonists of the TGF-beta/Smad signaling pathway - cell viability counter screen (AID 1346824); note: nearly all actives have a fitted effect of over 50% in size
Procedure, shortened: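 Cytotoxicity counter-screen run in the same wells as the beta-lactamase Smad reporter read: CellTiter-Glo luminescence after 30 min at room temperature. HEK 293T SBE-bla cells had 5 hr compound exposure at 37 C with TGF-beta1 (0.25 ng/mL stock).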

[6] = qHTS assay to identify small molecule agonists of the TGF-beta/Smad signaling pathway - cell viability counter screen (AID 1346829); note: nearly all actives have a fitted effect of over 45% in size
Procedure, shortened: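 CellTiter-Glo luminescence readout; SBE-bla HEK 293T cells, overnight plating, compound 5 hr at 37 C/5% CO2, then bla substrate 2 hr RT, then CellTiter-Glo 30 min RT.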

[7] = qHTS assay to identify small molecule agonists of the TGF-beta/Smad signaling pathway (AID 1346859; active = well fitted activation curve with a large enough effect in the signal ratio in the repeat runs, not every such curve was filed as active; inconclusive = weak or mixed curves; the % refers to the signal ratio; for activation: % is set by controls: 0 for no effect and ±100 for the full control effect); conditions: SBE-bla HEK293T, TGF-beta/Smad beta-lactamase reporter, 5 h; activation: at 76.8 µM (top of the series)
Procedure, shortened: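 Smad-responsive beta-lactamase reporter cells (HEK 293T) received compounds from DMSO stocks after overnight attachment, were incubated 5 hr, then treated 2 hr with FRET substrate before dual-emission fluorescence measurement (405 nm excitation).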

[8] = Human pregnane X receptor (PXR) small molecule agonists, qHTS cell viability counter screen (AID 1346977); note: nearly all actives have a fitted effect of over 50% in size
Procedure, shortened: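 Measures live-cell protease fluorescence (CellTiter-Fluor) in PXR-Luc HepG2 cells treated 24hr with compounds at 37C. Cells had 5hr to attach before pin transfer of DMSO solutions.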

[9] = qHTS assay to identify small molecule antagonists of the TGF-beta/Smad signaling pathway (AID 1346924; active = well fitted inhibition curve with a large enough effect in the signal ratio in the repeat runs, not every such curve was filed as active; inconclusive = weak or mixed curves; the % refers to the signal ratio); conditions: SBE-bla HEK293T, TGF-beta/Smad reporter, beta-lactamase ratio; activity, negative = inhibition: at 76.8 µM (top of the series) unless noted
Procedure, shortened: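 Read-out was FRET-substrate fluorescence (405 nm excitation; 460 and 530 nm emission) after 2 h at room temperature. Before that, cells carrying a Smad-binding-element beta-lactamase reporter in HEK 293T had been stimulated 5 h at 37 C with TGF-beta1 (0.25 ng/mL addition solution) in the presence of test compound.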

[10] = biological target: Thyrotropin-releasing hormone receptor (Homo sapiens) (UniProt P34981); assay: qHTS assay to identify small molecule antagonists of the thyrotropin-releasing hormone receptor (TRHR) signaling pathway (AID 1346877; active = well fitted inhibition curve with a large enough effect in the repeat runs, not every such curve was filed as active; inconclusive = weak or mixed curves)
Procedure, shortened: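 Antagonist mode: after a 5 min room-temperature compound exposure, cells were stimulated with 1 nM (final) TRH. Dye-loaded TRHR-HEK293 cells were used, and calcium-dependent fluorescence was followed for 3 min, with 15-point titrations run in triplicate.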
Potency is the fitted concentration of half-maximal effect; tags give direction and shape of the fitted curve or compound fluorescence and quenching.

UniProt P06401, sequence (P06401 whole entry, looked up): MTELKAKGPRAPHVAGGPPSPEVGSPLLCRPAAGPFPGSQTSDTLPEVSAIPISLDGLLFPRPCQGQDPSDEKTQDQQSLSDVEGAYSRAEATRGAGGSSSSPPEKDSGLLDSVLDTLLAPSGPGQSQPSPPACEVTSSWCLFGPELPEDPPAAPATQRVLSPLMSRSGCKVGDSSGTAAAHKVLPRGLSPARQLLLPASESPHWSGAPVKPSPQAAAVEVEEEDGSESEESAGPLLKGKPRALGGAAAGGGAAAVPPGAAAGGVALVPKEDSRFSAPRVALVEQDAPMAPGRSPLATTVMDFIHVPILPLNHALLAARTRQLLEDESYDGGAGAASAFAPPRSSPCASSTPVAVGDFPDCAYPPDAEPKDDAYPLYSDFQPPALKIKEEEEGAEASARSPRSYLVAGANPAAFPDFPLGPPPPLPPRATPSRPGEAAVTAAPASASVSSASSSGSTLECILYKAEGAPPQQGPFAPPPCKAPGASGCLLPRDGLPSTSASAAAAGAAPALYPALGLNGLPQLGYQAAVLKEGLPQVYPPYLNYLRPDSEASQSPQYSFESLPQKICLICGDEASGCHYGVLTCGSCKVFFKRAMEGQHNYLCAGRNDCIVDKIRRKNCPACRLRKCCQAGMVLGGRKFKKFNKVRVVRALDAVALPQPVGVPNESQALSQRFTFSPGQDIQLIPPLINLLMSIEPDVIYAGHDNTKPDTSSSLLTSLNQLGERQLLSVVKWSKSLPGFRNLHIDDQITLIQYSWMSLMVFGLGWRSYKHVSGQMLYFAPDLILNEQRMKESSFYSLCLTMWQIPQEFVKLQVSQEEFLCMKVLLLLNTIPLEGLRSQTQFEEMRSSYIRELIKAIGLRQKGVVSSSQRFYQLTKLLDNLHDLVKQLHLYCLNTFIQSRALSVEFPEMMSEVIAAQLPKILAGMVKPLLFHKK
UniProt P34981, sequence (P34981 whole entry, looked up): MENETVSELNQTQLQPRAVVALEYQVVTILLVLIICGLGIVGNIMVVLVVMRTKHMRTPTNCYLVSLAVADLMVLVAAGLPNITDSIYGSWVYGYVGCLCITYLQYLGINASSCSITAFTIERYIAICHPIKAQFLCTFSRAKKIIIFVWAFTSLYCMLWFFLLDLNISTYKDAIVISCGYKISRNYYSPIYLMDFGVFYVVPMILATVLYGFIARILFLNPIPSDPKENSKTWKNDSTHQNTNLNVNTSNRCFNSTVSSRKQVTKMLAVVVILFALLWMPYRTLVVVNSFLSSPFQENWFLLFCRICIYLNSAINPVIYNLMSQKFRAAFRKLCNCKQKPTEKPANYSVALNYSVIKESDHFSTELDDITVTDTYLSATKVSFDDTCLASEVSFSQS

CCCCCCCCCCCC(=O)NCCCN(C)C
active: Potency [2] 61.1 µM | Potency [3] 54.5 µM | Potency [4] 30.6 µM | Potency [5] 49 µM | Potency [6] 54.9 µM | Potency [8] 38.6 µM
inactive: Potency [7]
inconclusive: Potency [1] 68.6 µM [cytotoxic, single point]

C/C=C/C(=O)Oc1c(CCCCCC(C)C)cc([N+](=O)[O-])cc1[N+](=O)[O-]
inconclusive: activation [1] -13.4% | Potency [3] 48.6 µM [cytotoxic, partial curve, poor fit] | Potency [4] 38.6 µM [cytotoxic, partial curve, poor fit] | Potency [5] 5.49 µM [cytotoxic] | Potency [6] 19.5 µM [cytotoxic] | Potency [7] 34.7 µM [rising, partial curve] | Potency [9] 24.5 µM [partial curve]
active: Potency [2] 19.3 µM

C[C@H]1O[C@@H](O[C@H]2[C@@H](O)C[C@H](O[C@H]3[C@@H](O)C[C@H](O[C@H]4CC[C@@]5(C)[C@H](CC[C@@H]6[C@@H]5C[C@@H](O)[C@]5(C)[C@@H](C7=CC(=O)OC7)CC[C@]65O)C4)O[C@@H]3C)O[C@@H]2C)C[C@H](O)[C@@H]1O
active: Potency [3] 86.4 nM and 121 nM | Potency [4] 122 nM and 191 nM
inconclusive: Potency [1] 0.428 µM [rising, full curve] | Potency [2] 386 nM [full curve] and 539 nM [full curve] | Potency [5] 7.8 nM [cytotoxic, full curve] and 76.8 nM [cytotoxic, full curve] | Potency [6] 7.8 nM [cytotoxic, full curve] and 122 nM [cytotoxic, full curve] | Potency [7] 7.8 nM [rising, full curve] and 385 nM [rising, full curve] | Potency [9] 11 nM [rising, full curve] and 343 nM [rising, full curve] | Potency [8] 0.121 µM [cytotoxic, full curve]

CC=O
inconclusive: activation [1] -12.4% | Potency [2] 28.6 µM [rising, single point] | Potency [7] 18.2 µM [rising, full curve] | Potency [10] 39.7 µM [inhibitor, single point]
active: Potency [3] 32 µM | Potency [4] 45.3 µM | Potency [5] 25.7 µM | Potency [6] 28.8 µM

N=C1N=C(N)c2cc3ccccc3cc21
inconclusive: Potency [1] 23.6 µM | Potency [2] 64.8 µM | Potency [5] 0.0871 µM [rising, full curve] | Potency [6] 49 µM [cytotoxic, partial curve] | Potency [7] 13.8 µM [fluorescent] | Potency [9] 52.9 µM
active: Potency [3] 27.3 µM | Potency [4] 27.3 µM

Cc1cc(CCN2CCN(c3nsc4ccccc34)CC2)cc2c1NC(=O)CC2(C)C
active: Potency [2] 19.3 µM | Potency [3] 30.6 µM | Potency [4] 27.3 µM | Potency [5] 54.9 µM
inconclusive: activation [1] -12.1% | Potency [6] 54.9 µM [cytotoxic] | Potency [7] 15.5 µM [rising, partial curve]

CCCCc1oc2ccc(NS(C)(=O)=O)cc2c1C(=O)c1ccc(OCCCN(CCCC)CCCC)cc1
inconclusive: Potency [1] 21.1 µM [cytotoxic, partial curve] | Potency [2] 33.5 µM [falling, single point] | Potency [6] 26.8 µM [cytotoxic] | Potency [7] 26.8 µM [falling, single point] | Potency [9] 8.49 µM [rising, partial curve]
active: Potency [3] 18.8 µM | Potency [4] 13.3 µM | Potency [5] 23.9 µM

O=S1(=O)CC(Cl)(Cl)C(Cl)(Cl)C1
active: Potency [2] 6.86 µM | Potency [3] 13.7 µM | Potency [4] 12.2 µM
inconclusive: activation [1] -12.9% | Potency [5] 61.6 µM [cytotoxic, single point] | Potency [6] 54.9 µM [cytotoxic, single point] | Potency [7] 61.6 µM
